About 150 (0.041%) of roughly 370,000 compounds were called active. Inconclusive results, whose numbers are uncertain, are shown with a selection of clear calls. The call rests on the fitted dose curve; in most records, active means well fitted inhibition curve with a large enough effect; inconclusive means small, poorly fitted or top-dose-only effect; inactive means flat fitted curve, though single readings scatter. Potencies of inconclusive entries are left out as doubtful fits.
Biological target: Beta-lactamase (Escherichia coli (strain K12)) (UniProt P00811)
Assay: qHTS Inhibitors of AmpC Beta-Lactamase (assay with detergent); further: nearly all actives have a fitted effect of over 25% in size;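 on activity change, negative = inhibition: 0% = no-compound wells and -100% = no-enzyme wells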
Conditions: AmpC hydrolysis of nitrocefin, absorbance 480 nm, 0.01% Triton; activity change, negative = inhibition: at 114 µM (top of the series)
Procedure, shortened: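 20 mM phosphate pH 7.0 + 0.01% (detergent screen) or 0.0001% Triton X-100; 5.3 nM AmpC reagent; cpd preinc 15 min RT; nitrocefin (800 uM stock) to start; A480 q20 s × 4 min; Activity was normalised to no-enzyme and no-compound control wells.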
Potency means the concentration at half of the fitted maximal effect; tags describe the fitted curve by direction and shape.

UniProt P00811, sequence (P00811 whole entry, looked up): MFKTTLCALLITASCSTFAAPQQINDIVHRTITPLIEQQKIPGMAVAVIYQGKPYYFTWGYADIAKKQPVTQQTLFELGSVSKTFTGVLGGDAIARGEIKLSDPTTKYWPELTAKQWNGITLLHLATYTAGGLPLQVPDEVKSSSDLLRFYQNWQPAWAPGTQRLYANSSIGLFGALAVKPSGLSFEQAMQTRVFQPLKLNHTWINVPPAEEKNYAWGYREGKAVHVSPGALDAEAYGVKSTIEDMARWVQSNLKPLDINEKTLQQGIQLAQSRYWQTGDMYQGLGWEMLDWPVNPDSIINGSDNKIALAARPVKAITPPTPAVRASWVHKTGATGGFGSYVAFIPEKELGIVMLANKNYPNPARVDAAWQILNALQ

| SMILES | Potency | activity change, negative = inhibition |
| --- | --- | --- |
| NS(=O)(=O)OCCCCCc1ccccc1 | inconclusive [inhibitor, full curve, poor fit] | – |
| O=C(/C=C/c1ccc(Cl)cc1)NC(=S)N1C[C@H]2C[C@H](C1)c1cccc(=O)n1C2 | inconclusive [inhibitor, partial curve, poor fit] | – |
| CC1CCN(C(=O)c2[nH]cnc2C(=O)Nc2ccon2)CC1 | – | inactive: 6.18% |
| COC(=O)c1sc(NC(=O)COc2ccc(C)cc2)nc1C | inconclusive [inhibitor, full curve, poor fit] | – |
| CCSc1nc(C2CC2)cc(-c2cccs2)c1C#N | inconclusive [inhibitor, full curve] | – |
| CCOc1c(Cl)cc(CNc2ccc(S(N)(=O)=O)cc2)cc1OC | – | inactive: -4.27% |
| CC1CCN(CCCOc2ccc(OCc3ccccc3)cc2)CC1 | inconclusive [inhibitor, single point] | – |
| C/C=C(\C)C(=O)N[C@@H](c1ccccc1)[C@@H](O)C(=O)O[C@H]1C[C@@]2(O)[C@@H](OC(=O)c3ccccc3)C3[C@](C)(C(=O)[C@H](OC(C)=O)C(=C1C)C2(C)C)[C@@H](O)C[C@H]1OC[C@@]31OC(C)=O (stereo partly drawn) | – | inactive: -8.15% |
| N#CCSCC(=O)Nc1ccc(Cl)cc1 | inconclusive [inhibitor, full curve, poor fit] | – |
| CCOC(=O)CSc1nnc2n(Cc3ccccc3)c(=O)c3c4c(sc3n12)CCC4 | inconclusive [inhibitor, full curve] | – |
| Cc1c2c(nc3c(C)cccc13)OC(C)C2 (stereo not drawn) | inconclusive [inhibitor, single point] | – |
| CCOC(=O)c1cc(-c2ccc(C)cc2)n(CC(=O)Nc2ccccc2F)c1C | – | inactive: 2.35% |
| Nc1nnc(SCC(=O)N2CCN(c3ccccc3)CC2)n1-c1ccccc1 | inconclusive [inhibitor, full curve] | – |
| Cc1cc(C)c(S(=O)(=O)Cc2ccccc2)c(=O)[nH]1 | – | inactive: -4.55% |
| Cc1ccc(-c2c(C)n([O-])c3c([n+]2=O)CCCCC3)cc1 | inconclusive [inhibitor, full curve] | – |
| COc1ccc(Nc2ccccc2NC(=O)c2ccccc2Br)cc1 | – | inactive: 5.45% |
| CC1CCCN(C(C(=O)Nc2ccc3c(c2)OCCO3)c2ccccc2)C1 (stereo not drawn) | inconclusive [inhibitor, partial curve, poor fit] | – |
| O=C(COC(=O)[C@H](Cc1ccccc1)NC(=O)c1cccs1)NC1CC1 | inconclusive [inhibitor, full curve, poor fit] | – |
| CCn1c(C(O)c2ccc(C)cc2)nc2ccccc21 (stereo not drawn) | inconclusive [inhibitor, full curve, poor fit] | – |
| CCCCOc1ccc(-c2nnn(C(C)C(=O)OCC)n2)cc1 (stereo not drawn) | – | inactive: -6.41% |
| COc1ccccc1C1=NC(c2ccc(C)cc2)N=C1C (stereo not drawn) | inconclusive [inhibitor, full curve] | – |
| COc1cccc(OC)c1C(=O)NC(C)CCc1ccccc1 (stereo not drawn) | inconclusive [inhibitor, partial curve, poor fit] | – |
| CCS(=O)(=O)c1ncc(Cl)c(C(=O)Nc2ccc(S(=O)(=O)N3CCCC(C)C3)cc2)n1 (stereo not drawn) | inconclusive [inhibitor, partial curve] | – |

| SMILES | Potency | activity change, negative = inhibition |
| --- | --- | --- |
| CCN(CC)C(=O)N1c2ccccc2C=Cc2ccccc21 | – | inactive: -8.49% |
| Cc1cc(-c2csc(Nc3ccccn3)n2)ccc1F | inconclusive [inhibitor, full curve, poor fit] | – |
| O=C(Nc1ccc(Cl)cn1)c1ccc(COc2ccccc2Br)o1 | – | inactive: 4.51% |
| O=C(Nc1ccc(Cl)cc1)Nc1ccccn1 | – | inactive: 0.0579% |
| Cc1ccc(N2C(=O)N(CC(=O)Nc3ccc(F)c(F)c3)C(=O)C2C)cc1 (stereo not drawn) | – | inactive: -8.72% |
| CCCCOc1ccc(CNC(=O)Cc2ccc(NC(=O)N3CCCCc4ccccc43)cc2)cc1 | – | inactive: -3.29% |
| COc1ccc(N2C(=O)c3ccccc3NC2c2ccc(OC)c(Cn3cc([N+](=O)[O-])cn3)c2)cc1 (stereo not drawn) | – | inactive: 5.48% |
| O=C(OCC(=O)C12CC3CC(CC(C3)C1)C2)c1ccccn1 | – | inactive: -7.65% |
| Cc1cccc(-n2c(O)c(C=NCCCN3CCOCC3)c(=O)[nH]c2=O)c1C | inconclusive [inhibitor, partial curve] | – |
| O=c1c2ccccc2ncn1CCCSc1ccccc1 | – | inactive: -1.07% |
| CS(=O)(=O)N1CCCC(C(=O)NC2CCCCCCC2)C1 (stereo not drawn) | inconclusive [inhibitor, full curve] | – |
| Cc1ccc(C)c(OCC(=O)NCC2COc3ccccc3O2)c1 (stereo not drawn) | inconclusive [inhibitor, full curve, poor fit] | – |
| C=C(C)COc1ccc(-c2ncncc2-c2ccccc2OC)c(O)c1 | inconclusive [inhibitor, single point] | – |
| O=C(O)c1ccccc1NC1CCCCC1NS(=O)(=O)c1ccccc1 (stereo not drawn) | inconclusive [inhibitor, partial curve] | – |
| CCN(Cc1ccncc1)C(=O)c1cc(COc2c(F)cccc2F)on1 | – | inactive: -9.79% |
| COC(=O)C1=C(N)Oc2cc(N(C)C)ccc2C1c1ccccc1OC (stereo not drawn) | inconclusive [inhibitor, partial curve, poor fit] | – |
| O=C(NCCCCNC(=O)c1ccccc1F)c1ccccc1F | inconclusive [inhibitor, full curve, poor fit] | – |
| COc1cccc(NC2=NCCCS2)c1 | inconclusive [inhibitor, full curve, poor fit] | – |
| Cc1cc2cc(C(c3nnnn3Cc3ccco3)N3CCc4ccccc43)c(=O)[nH]c2cc1C (stereo not drawn) | inconclusive [inhibitor, full curve] | – |
| COC(=O)c1cc2c(ccn2-c2ccc(F)cc2)n1Cc1ccc(OC)cc1 | – | inactive: -2.07% |
| Cc1ccc(NC(=O)[C@@H]2CCCN2C(=O)c2cccs2)cc1S(=O)(=O)N1CCCCC1 | inconclusive [inhibitor, partial curve, poor fit] | – |
| C/C(=N\NC(=O)c1cccnc1)c1c(O)cc(C)oc1=O | inconclusive [inhibitor, full curve, poor fit] | – |
| COc1ccc(CCNC(=O)C2CCN(Cc3nc(-c4ccccc4F)oc3C)CC2)cc1OC | inconclusive [inhibitor, single point] | – |

| SMILES | Potency | activity change, negative = inhibition |
| --- | --- | --- |
| COc1cc(/C=N/n2c(-c3n[nH]c4c3CCC4)n[nH]c2=S)ccc1O | inconclusive [inhibitor, partial curve] | – |
| CCOC(=O)c1cnc(SCC(=O)c2ccc(Cl)cc2)nc1N | inconclusive [inhibitor, single point] | – |
| CCN(CC)S(=O)(=O)c1cc(Br)ccc1OC | inconclusive [inhibitor, full curve] | – |
| O=C(c1ccccc1)N1CCN(C(=O)c2nn3c(C(F)(F)F)cc(-c4ccco4)nc3c2Br)CC1 | – | inactive: -2.39% |
| Oc1[nH]c2ccccc2c1N=NC(=S)NCCc1ccccc1 | inconclusive [inhibitor, partial curve] | – |
| CC(C)c1ccccc1OS(N)(=O)=O | inconclusive [inhibitor, partial curve, poor fit] | – |
| Cc1cccc(-n2c(C)nc3cc(C(=O)NCC4CCCO4)ccc32)c1 (stereo not drawn) | inconclusive [inhibitor, full curve, poor fit] | – |
| Cn1c(=O)oc2cc(S(=O)(=O)NC3CCCCCCC3)ccc21 | inconclusive [inhibitor, full curve, poor fit] | – |
| COc1ccc(-c2nsc3c(N4CCN(S(=O)(=O)c5ccccc5)CC4)ncnc23)cc1 | inconclusive [inhibitor, partial curve, poor fit] | – |
| CCCn1c(OC)nc2c1c(=O)n(C)c(=O)n2C | inconclusive [inhibitor, full curve, poor fit] | – |
| Cc1sc2ncnc(Nc3ccccc3)c2c1C | inconclusive [inhibitor, full curve] | – |
| COc1cc(OC)cc(C(=O)NCC(=O)OCC(=O)N2CC(C)CC(C)C2)c1 (stereo not drawn) | inconclusive [inhibitor, single point] | – |
| c1ccc(-c2nc(C3CCCCC3)no2)cc1 | inconclusive [inhibitor, single point] | – |
| CC(=O)c1ccc(N2CCN(C(=O)CCCc3nc4ccccc4s3)CC2)cc1 | – | inactive: -11.9% |
| CSCCC(=O)Nc1ccc(C(C)=O)cc1 | inconclusive [inhibitor, partial curve, poor fit] | – |
| COc1ccccc1C(=O)Nc1nnc(SCc2cc(=O)c3cc(Cl)ccc3[nH]2)s1 | – | inactive: -2.85% |
| O=C(NCCc1ccc(F)cc1)C1CCN(C(=O)Nc2ccccc2)CC1 | inconclusive [inhibitor, full curve] | – |
| CC(C)C12CN3CCN(CC(C3)/C1=N\NC(=O)Nc1ccccc1)C2 | inconclusive [inhibitor, single point] | – |
| Cn1c(N)c(C(=O)COC(=O)CC(NC(N)=O)c2ccc(Cl)cc2)c(=O)n(C)c1=O (stereo not drawn) | inconclusive [inhibitor, partial curve, poor fit] | – |
| Cc1ccc(-c2cc(C(F)(F)F)c(C#N)c(=O)[nH]2)cc1 | inconclusive [inhibitor, full curve, poor fit] | – |
| CCOC(=O)Cn1nnnc1CN(CCc1ccccc1)Cc1cc2cc(CC)ccc2[nH]c1=O | inconclusive [inhibitor, partial curve] | – |
| O=S(=O)(CCc1nc2ccccc2s1)c1ccc2ccccc2c1 | – | inactive: -0.805% |

— PubChem BioAssay AID485294 (National Center for Advancing Translational Sciences (NCATS), 2010)
